“And” between values parts separate entries of the source, which are not always exact repeats. Equal values may be shown once. Out of some 48,000 compounds screened, about 1,200 (2.5%) were called active. Roughly 2% stayed inconclusive and do not appear here.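 The calls were made as follows: active = activation of at least 60% and not above a set upper limit (about 1 call in 100 departs from these limits); inconclusive = activation of 40% to 60%, or above that upper limit; inactive = activation under 40%.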 The list shows a part of the results.

UniProt O75388, sequence (O75388 whole entry, looked up): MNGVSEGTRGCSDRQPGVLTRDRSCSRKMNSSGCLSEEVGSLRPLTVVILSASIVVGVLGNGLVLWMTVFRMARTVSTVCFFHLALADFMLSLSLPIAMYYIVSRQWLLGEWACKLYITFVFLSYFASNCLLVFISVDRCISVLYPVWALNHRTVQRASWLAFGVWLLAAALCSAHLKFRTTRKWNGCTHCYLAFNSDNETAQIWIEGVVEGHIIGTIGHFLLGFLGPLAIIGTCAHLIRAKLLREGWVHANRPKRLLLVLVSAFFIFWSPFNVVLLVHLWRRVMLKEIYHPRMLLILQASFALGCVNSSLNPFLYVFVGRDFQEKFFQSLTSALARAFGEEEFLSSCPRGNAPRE

This assay has as its target Probable G-protein coupled receptor 32 (Homo sapiens) (UniProt O75388). Put plainly: qHTS for Agonists of Human Resolvin D1 Receptor DRV1. The following applies: CHO-K1 GPR32 beta-arrestin PathHunter luminescence, 90 min; at 76.9 µM; active compounds read high; zero percent set by DMSO-only wells. In outline:
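Beta-arrestin recruitment read-out: luminescence from complemented beta-Gal in CHO-K1 GPR32 PathHunter cells, measured 1 h after detection reagent at ambient temperature following 90 min compound exposure at 37 °C; DMSO served as basal (EC0) control.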
As to `COc1ccc(Nc2cc(C)nc(-n3nc(C)cc3C)n2)cc1Cl`, the activation was inactive: -16.7%. With `COc1ccc(-c2cc(C(=O)Nc3c(Cl)cccc3Cl)no2)cc1OC`, the activation is inactive: -8.41%. Then `Cc1ccc(-n2c3c(c(=O)[nH]c2=O)C(NC(=O)c2ccccc2F)(C(F)(F)F)C(=O)N3)cc1C` (stereo not drawn), with inactive: -5.51%; and `CCc1ccc(N2CCn3c2nc2c3c(=O)n(Cc3ccc(F)cc3)c(=O)n2C)cc1`, with inactive: -11.1%. Consider `COc1ccc2c(c1)c(=O)c(S(=O)(=O)c1ccc(C)c(C)c1)cn2CC(=O)Nc1ccccc1`, for which the activation was inactive: 12.6%.

As to `CCN(CCCNC(=O)c1cc2c(=O)n(CC)c3ccccc3c2s1)c1cccc(C)c1`, the activation was inactive: -6.64%. For `Cc1ccccc1-c1nc(CS(=O)(=O)CC(=O)NC(C)c2ccccc2)c(C)o1` (stereo not drawn), the activation was inactive: 1.53%.

For the compound `O=C(Nc1cc(F)ccc1F)C1COc2ccccc2C1` (stereo not drawn), the activation was inactive: 10.5%. To `COc1cc(-c2noc(C3CC(=O)N(c4ccc5c(c4)OCCO5)C3)n2)cc(OC)c1OC` (stereo not drawn) belongs inactive: 6.48%. In the case of `COc1ccc(Cl)cc1NC(=O)CN(c1cc(C)cc(C)c1)S(=O)(=O)c1c(C)n[nH]c1C`, the activation is inactive: 45.1%. To `CCc1ccc(NC(=O)c2cc3c(=O)n(Cc4cccs4)ccc3nc2C)cc1` belongs inactive: -26.4%; to `COc1ccc(C(=O)Nc2ccc(-n3nncc3-c3ccc(OC)c(OC)c3)cc2)cc1`, inactive: -14.7%. Take `Cc1ccc(S(=O)(=O)c2nc(-c3ccccc3)oc2N2CCN(c3ccccc3)CC2)cc1`: the activation was inactive: -27.4%. Then `Cc1ccc(-c2cc(C(=O)O)n(Cc3ccccc3)n2)cc1`, with inactive: -1.85%. Then `Cc1ccc(CNc2ccc(-c3nc(-c4ccco4)no3)cc2[N+](=O)[O-])cc1`, with inactive: 24%. To `CCN(CC)CC(=O)Nc1c(C)cccc1C` belongs inactive: -6.03% and inactive: -12.5%; to `CCc1nn(CC(=O)NCCCOC)c(=O)c2cc3occc3n12`, inactive: -12.2%; to `O=C(CCCn1c(=O)[nH]c2ccccc2c1=O)NCc1ccccc1Cl`, inactive: -24.7%. Take `CCCN(CCC)CCCNC(=O)Cn1cnc2onc(-c3ccc(F)cc3)c2c1=O`: the activation is inactive: -3.19%.

Take `O=C(Cn1cnc2c(nc3n2CCCCC3)c1=O)Nc1ccc(F)cc1`: the activation was inactive: -5.88%.

In the case of `Cc1ccc(-c2nnc(Nc3ccc(Br)cc3)c3ccccc23)cc1S(=O)(=O)N1CCCCC1`, the activation is inactive: -15.1%. Then `CN(C(=O)c1nc(-c2cccc(F)c2)n2c1CCCCC2)c1ccccc1F`, with inactive: -25.7%; and `Cc1cc(C)c2c(-n3cccc3)c(C(=O)NCCc3ccc(Cl)cc3)sc2n1`, with inactive: 9.81%. Then `COC(=O)C(C)Sc1nnc2cc(C)c3cc(C)cc(C)c3n12` (stereo not drawn), with inactive: -23.4%. With `COc1cc(-c2cc(OC)c3c(C)oc(C)c3c(=O)c2)ccc1OC(=O)c1ccccc1C`, the activation is inactive: -20.8%. To `O=C(CN1C(=O)C(c2ccc(F)cc2)=NC12CCCCCC2)Nc1ccc(F)c(Cl)c1` belongs inactive: -6.96%; to `Cc1ccc2c(=O)cc(C(=O)Nc3c(C)n(C)n(-c4ccccc4)c3=O)oc2c1C`, inactive: -2.09%. Then `CCC(=O)NC1CC(=O)N(c2ccc3c(c2)OCCO3)C1` (stereo not drawn), with inactive: -11.3%. Then `COc1ccccc1NC(=O)Cn1c(=O)n(Cc2ccco2)c(=O)c2oc3ccccc3c21`, with inactive: -15%. `CCCOc1ccc(NC(=O)CC2C(=O)N(c3ccccc3)C(=O)N2CCC(C)C)cc1` (stereo not drawn): the activation is inactive: -16.9%.

For `COc1cc(C2c3c(-c4ccccc4O)n[nH]c3C(=O)N2Cc2ccncc2)ccc1O` (stereo not drawn), the activation is inactive: -1.7%. For the compound `CCc1ccc(NC(=O)C2CCN(c3cc(C)nc4c(-c5ccc(Cl)cc5)c(C)nn34)CC2)cc1`, the activation is inactive: 11.4%. Then `COc1cccc(CNC(=O)CC(c2ccc(F)cc2)N2Cc3ccccc3C2=O)c1` (stereo not drawn), with inactive: -26%; and `Cc1ccccc1NC(=O)c1ccccc1NC(=O)c1ccccc1Cl`, with inactive: -20.7%; and `CCc1ccc(NC(=O)CSc2ccc3nnc(CCNS(=O)(=O)c4ccc(OC)cc4)n3n2)cc1`, with inactive: -12.6%. Then `Cc1cc(OCCCSc2nc(-c3ccc(C(C)(C)C)cc3)nc3cc(=O)[nH]n23)ccc1Cl`, with inactive: -34.8%; and `COc1cc(Cl)c(NC(=O)C2CCN(S(=O)(=O)c3c(C)noc3/C=C/c3ccccc3F)CC2)c(OC)c1`, with inactive: -5.27%; and `CC(C)c1ccc(NC(=O)CCCc2nc(-c3ccc(Cl)cc3)no2)cc1`, with inactive: 2.93%. `Cc1nc2ccc(S(=O)(=O)CCC(=O)Nc3ccc(F)cc3C)cc2s1`: the activation is inactive: 3.53%. Then `Cc1nc(N2CCCC2)c2c(C(=O)N3CCN(c4cccc(C)c4C)CC3)c(C)oc2n1`, with inactive: -33.2%. Then `CC(C)c1ccccc1NC(=O)CN1C(=O)c2cccc3cccc1c23`, with inactive: 5.36%. Take `O=C(CSc1nc(-c2ccccc2)[nH]c1-c1ccccc1)Nc1ccc2c(c1)OCCO2`: the activation was inactive: -8.72%. To `Cc1ccc(Nc2cc(C)c(C#N)c3nc4ccccc4n23)cc1Cl` belongs inactive: 9.64%; to `CCCSCCCNC(=O)c1ccc2c(c1)nc1n2CCCCC1`, inactive: -13%. `CN(CC(=O)Nc1ccccc1Cl)S(=O)(=O)c1ccc(C(=O)N2CCOCC2)s1`: the activation was inactive: 0.249%. On to `COc1ccc(S(=O)(=O)N2CCN(Cc3ccc4c(c3)OCO4)CC2)cc1OC`, for which the activation is inactive: -3.52%. To `CC(C)c1cc(-c2nc(-c3ccccc3)no2)n[nH]1` belongs inactive: -2.58%; to `COCCNC(=O)c1nn(-c2ccc(Cl)cc2)nc1CO`, inactive: -0.679%; to `COc1ccc(CNC(=O)c2cc3c(=O)n(C)c4ccccc4c3n2C)cc1`, inactive: 4.29%. Then `Cn1cnc(S(=O)(=O)N2CCC(C(=O)NCc3ccc(Cl)cc3)CC2)c1`, with inactive: -10.3%; and `O=C(O)[C@@H]1C[C@H](C(=O)O)N1`, with inactive: 2.31%.

On to `O=C(Cc1ccccc1)N(Cc1cccnc1)c1nc2ccc(F)cc2s1`, for which the activation was inactive: -24.9%. Then `O=C(CSc1ccccc1)NCc1ccc2c(c1)CCN2C(=O)c1ccc(F)cc1`, with inactive: -8.21%.

Regarding `CCc1ccc2oc(-c3ccc(NC(=O)c4cc(OC)c(OC)c(OC)c4)cc3)nc2c1`, the activation is inactive: 23.9%. As to `CCOC(=O)c1ccc(N2C(=O)c3[nH]nc(-c4ccc(OCC)cc4)c3C2c2ccc(OC)cc2OC)cc1` (stereo not drawn), the activation is inactive: -8.81%.

With `O=C(Nc1cccc2cccnc12)c1ccc(F)cc1`, the activation is inactive: -23.2%. To `CCOc1cc(C2CC(=O)Nc3nc(SCc4ccccc4)[nH]c(=O)c32)ccc1O` (stereo not drawn) belongs inactive: -1.09%; to `CCc1ccc(CNC(=O)CCCN2C(=O)c3cccnc3Oc3ccc(Cl)cc32)cc1`, inactive: -16.9%; to `Cc1ccccc1-c1nnc(C2CCN(S(=O)(=O)c3ccc(Cl)cc3)CC2)o1`, inactive: -5.7%.

Regarding `O=C(COc1ccccc1)Nc1nnc(S(=O)(=O)N2CCCCCC2)s1`, the activation was inactive: 9.31%. To `Cc1nn(CC(=O)NCCc2ccccc2Cl)c(=O)c2nn(-c3ccccc3)c(C)c12` belongs inactive: -21.2%; to `O=S(=O)(c1ccccc1)N1CCC(c2ccncc2)CC1`, inactive: 7.71%. Then `O=C1COc2cc(S(=O)(=O)CCC(=O)N3CCN(c4cccc(Cl)c4)CC3)c(Cl)cc2N1`, with inactive: 27.2%. To `CCC(C)NC(=O)c1sc2nc(C)c(C(=O)Nc3ccc(C)cc3C)c(-c3ccc(Cl)cc3)c2c1N` (stereo not drawn) belongs inactive: -20.6%; to `CCOc1ccc(CNC(=O)Cn2nc(C)c3nn(-c4ccc(Cl)cc4)c(C)c3c2=O)cc1OC`, inactive: -7.96%; to `Cc1ccc2c(c1)c1c(c(=O)n(-c3ccccc3C)c(=O)n1CC(=O)NCCC1=CCCCC1)n2C`, inactive: -22.8%. Regarding `CC(=O)c1cc(-c2ccc(F)cc2)n(CCC(=O)Nc2nc3c(C)cccc3s2)c1C`, the activation was inactive: -14.6%. For `c1ccc2c(CC3=NCCN3)cccc2c1`, the activation was inactive: -18.3%. Turning to `COc1ccc(CNCc2c(C(=O)O)c(C)n(Cc3ccc(Cl)cc3)c2C)c(OC)c1`, the activation is inactive: -12.4%. Then `CC(=O)OCC(=O)[C@@]12OC(C)(C)O[C@@H]1C[C@H]1[C@@H]3C[C@H](F)C4=CC(=O)C=C[C@]4(C)[C@@]3(F)[C@@H](O)C[C@@]12C`, with inactive: 5.44%; and `Cc1ccc(Cc2nc3ccccc3nc2SCC(=O)Nc2cccc(C(F)(F)F)c2)cc1`, with inactive: -2.6%; and `Cc1ccc(-c2cc(C(=O)Nc3c(C(=O)c4ccccc4)oc4ccccc34)no2)cc1F`, with inactive: 14.3%. To `Cc1ccc(-n2ncc3c(NC4CCCCC4)ncnc32)cc1` belongs inactive: 21.9%; to `O=C(CN1CCSc2ccccc21)N1CCN(c2cccc(Cl)c2)CC1`, inactive: -7.47%; to `COC(=O)c1cnn(-c2ccc(C(=O)Nc3ccc(C(C)=O)cc3)cc2)c1N`, inactive: 6.01%. To `Cc1ccc(CNS(=O)(=O)c2c(C)nc3scc(C)n3c2=O)cc1` belongs inactive: -11.1%; to `CC(C)(C)c1ccc(S(=O)(=O)NCc2nc3cccnc3n2Cc2ccccc2Cl)cc1`, inactive: -38.4%. For the compound `COc1ccc(-n2c(=O)c3sc4ccccc4c3n(CC(=O)Nc3cccc(C)c3)c2=O)cc1`, the activation is inactive: -12.1%. To `Cc1ccc(-c2nnc(Nc3ccc(Br)cc3)c3ccccc23)cc1S(=O)(=O)N1CCOCC1` belongs inactive: -12.3%; to `COCCNC(=O)Cn1cc(S(=O)(=O)Cc2ccccc2Cl)c2ccccc21`, inactive: -6.38%; to `CCOC(=O)N1CCc2c(sc3c2c(=O)n(CCc2ccccc2)c(=O)n3Cc2cc(C)ccc2C)C1`, inactive: -3.04%. Take `CC1=C(C(=O)Nc2ccccc2C)C(c2cccnc2)n2nc(SCc3ccccc3)nc2N1` (stereo not drawn): the activation was inactive: -12.5%.

In the case of `COc1ccccc1NC(=O)c1cc(S(=O)(=O)N(C)C2CCCCC2)ccc1F`, the activation is inactive: -11.6%.
